# Measured values taken from the supplement of paper PMC11417369.
# ± gives the standard deviation of the averaged measurements. Some of the results follow.
# System: PfAP2-LT AP2 domain (GST-tagged)
# Assay: gcPBM binding intensity (ln(normalized median fluorescence intensity)); higher = stronger DNA binding
# How it was run: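 An Agilent 4 × 180k array of primer-extended double-stranded 36-bp intergenic genomic probes, with negative controls, was incubated for 1 h with GST-tagged P. falciparum DNA-binding domains expressed in E. coli. Alexa488 anti-GST antibody detected bound protein, scanned at 488 nm. Binding intensity is the highest Masliner-normalised natural-log median intensity across replicate spots of either probe orientation.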
row,Sequence,gcPBM binding intensity (ln)
1,AAATGTGTTTATTTAACACACAAAAGAAAAAATATA [CACACA_site6993],9.02 ± 0.54
2,CTGTTTTTGTTTTAAAGTACATTGTTCAATATACAT [XGTACX_site5288],8.82 ± 0.43
3,TGTTCTGAACGGTTCATGCACTTTTTTTTGTTAATT,8.85 ± 0.48
4,TTTATTTTCATATGAACACACATATATATATTATAA [CACACA_site2369],8.99 ± 0.44
5,TTATATACCCTAATATGTTTTATTATTATTATATAT [TGCATGCA_negctrl_site6],8.75 ± 0.55
6,TATATTCTACAAGAATTATGAATTGTCAGACCAAAT [CACACA_negctrl_site1101],8.46 ± 0.37
7,TACAATGTGGATAATTGTACAAAACCGATAAGAGGG [XGTACX_site6453],9.07 ± 0.4
8,ATATAAATAATATAAATACACACTAAAAAAAATATA [CACACA_site542],8.88 ± 0.44
9,AAGAAAAACTTTACGTGTACCAAACATCCTGCCGAC [XGTACX_site4895],8.94 ± 0.38
10,TAAACCTTAAAATATTTCTCATGTTTAACTTATATT [GTGCAC_negctrl_site233],8.55 ± 0.58
11,AAAAAATAATTGAAGTGTACGTACAATGATTTTACT [XGTACX_site7663],9.03 ± 0.35
12,GTATTCTACAGACACATACACACATATATATATATA [CACACA_site3427],9.57 ± 0.27
13,TTATAATATTGTGGTATACACACCTTACAAAAAGGT [CACACA_site2878],8.96 ± 0.46
14,GGGAGAAATTTATACATACACACATATATATATTAT [CACACA_site4039],9.18 ± 0.3
15,TTATAAAAAAAAAAAAAAAATATATATATATATATA [XGTACX_negctrl_site592],9.47 ± 0.44
16,AATAATATATATTGTACACACAAAATGGGAAAAAAA [CACACA_site5100],9.1 ± 0.33
17,AAAAAATAATAATAAAATGAATAGATATGTATTTAT [TGCATGCA_negctrl_site210],8.63 ± 0.52
18,AGCAGAGTTACAATTTGTACGTAATTGATATAGATA [XGTACX_site4051],8.86 ± 0.42
19,AACATATTATCTTGTGAAAATAATATAAGTCACATT [TGCATGCA_negctrl_site339],8.97 ± 0.38
20,ATATATATATATATTTGTACAGAAAATATTTTAATA [XGTACX_site3706],8.73 ± 0.37
21,ACAAAATGTAAATAAACACACATATATATATATATA [CACACA_site1281],9.88 ± 0.014
22,ATAATTTATATTCAGAAACACACGAAAAAAAAAAAT [CACACA_site1296],8.84 ± 0.49

row,Sequence,gcPBM binding intensity (ln)
1,AACTAAACAAAAGTTACACACATCATACGATATTAT [CACACA_site3180],8.98 ± 0.38
2,ACCATATAATTTTTTTGTACATAATGATTTTTTTTT [XGTACX_site1104],8.8 ± 0.42
3,TATATTATATACGTCTGTACACAAATGAGAGGTAAA [XGTACX_site5538],8.82 ± 0.39
4,ATGTTAAGAATAATTAGTACTTACATATGTATAATA [XGTACX_site4419],8.71 ± 0.39
5,TAAATATTTTATTGTACACACTTTTTATGAATGATG [CACACA_site5694],8.88 ± 0.43
6,AATATTTAAAACAAATCACACATGTATCCATAAATG [CACACA_site5308],8.73 ± 0.35
7,ATATCCCATATGTAATGTACTTACACTTTCTTAATT [XGTACX_site7020],8.97 ± 0.42
8,ATAAAATATATATGCACACACATATATATTTCATAC [CACACA_site3547],9.37 ± 0.36
9,ACATAAAATAAATATACACACATATGTATATATTAT [CACACA_site3041],9.09 ± 0.4
10,ATATATATATATATGTGTACTTATAAATATATCTGT [XGTACX_site4337],9.55 ± 0.32
11,AAAAGAATTTAGAAGGCATGCACTTAAACATGGATA [TGCATGCA_site699],9.1 ± 0.6
12,AAAAAAATAATGTACACACACATATCTGTTTATATA [CACACA_site4270],9.27 ± 0.34
13,ATATTTATATATATATGTACATATGTGTGTTTTTAT [XGTACX_site3956],9.22 ± 0.36
14,ATATATAACTTTTCTTAACACACAAAAAACAAAAAT [CACACA_site8748],8.84 ± 0.36
15,TCATAAACATTATGCACACAAAAATAAAAAAAAATA [CACACA_site1115],9.2 ± 0.5
16,AGGGAATAATATTAATGTACATATATGAACTTGTTT [XGTACX_site6089],8.93 ± 0.43
17,TCTTTTAAAAATTAAGTGCATGTCCTTATAACAAAA,8.23 ± 0.41
18,TATAAAAAGGAAAAATAAAAATAAAAATAAAAATTA [CACACA_negctrl_site1822],8.42 ± 0.57
19,TTTTTATATTATTTAATGAGAAATAATTATAAACAA [CACACA_negctrl_site553],8 ± 0.44
20,ATGTGATGTTATATATGTACTTATTTTTTAATAAGG [XGTACX_site1786],8.63 ± 0.37
21,ACACTATCTTAGATTTGTACATATTTATATATGTAT [XGTACX_site8739],9.03 ± 0.42
22,TCGGTATCTGTTCAAAGTACACATTTGTATACAAAA [XGTACX_site1890],8.64 ± 0.37
